Results taken from the supplement of paper PMC12067230.
Single values of this set are uncertain.

Assay: amyloid nucleation score relative to library mode (yeast Sup35 reporter selection) (log enrichment difference); higher = more amyloid nucleation; sequences are the first 22 residues of the Bri2 peptide extended by up to 12 random residues
Details: random library (experiment): 1;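 active = nucleation score significantly above 0 at FDR 0.05; inactive = not significantly above 0 or absent from output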
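Note: [psi-pin-] Saccharomyces cerevisiae expressing SupN fusions, induced by 100 µM Cu2SO4, selected 7 d at 30 °C without adenine and uracil, scored by deep sequencing of output versus input.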

Sequence | amyloid nucleation score
EASNCFAIRHFENKFAVETLICHVGVLSDGDEVS | inactive
EASNCFAIRHFENKFAVETLICHVILGVEHRPYV | inactive
EASNCFAIRHFENKFAVETLICHVKQKFMGDTLF | 1.7
EASNCFAIRHFENKFAVETLICHVLRQVIGVFP | inactive
EASNCFAIRHFENKFAVETLICHVMNRILLEDHA | inactive
EASNCFAIRHFENKFAVETLICHVMPWV | inactive
EASNCFAIRHFENKFAVETLICHVQSPE | inactive
EASNCFAIRHFENKFAVETLICHVRINIATCWCA | inactive
EASNCFAIRHFENKFAVETLICHVRY | inactive
EASNCFAIRHFENKFAVETLICHVSHFVLVLQRV | inactive
EASNCFAIRHFENKFAVETLICHVTTPSATFR | 2.69
EASNCFAIRHFENKFAVETLICHVVFMCGVNACV | inactive
EASNCFAIRHFENKFAVETLICHVWVFESEMTWG | inactive
EASNCFAIRHFENKFAVETLICHVYKIGSQVVER | inactive
EASNCFAIRHFENKFAVETLICHW | 5.45
EASNCFAIRHFENKFAVETLICHWA | 5.23
EASNCFAIRHFENKFAVETLICHWCGQESRSKIK | inactive
EASNCFAIRHFENKFAVETLICHWCYPDYRIMCR | 0.582
EASNCFAIRHFENKFAVETLICHWHPIRFNSFFW | inactive
EASNCFAIRHFENKFAVETLICHWILLLHNLEGT | -0.265
EASNCFAIRHFENKFAVETLICHWLSPLIGRFSF | 0.506
EASNCFAIRHFENKFAVETLICHWPALWDLNYAG | 0.506
EASNCFAIRHFENKFAVETLICHWPCSRYKRQWA | -0.546
EASNCFAIRHFENKFAVETLICHWQLAGTAEENG | inactive
EASNCFAIRHFENKFAVETLICHWSTLEGTGHGG | 0.636

Same assay, conditions: random library (experiment): 2

Sequence | amyloid nucleation score
EASNCFAIRHFENKFAVETLICHVGKLL | inactive
EASNCFAIRHFENKFAVETLICHVHYRSYPDWSK | 3.29
EASNCFAIRHFENKFAVETLICHVNVFVMFVQGT | 2.61
EASNCFAIRHFENKFAVETLICHVRRVTMYHSIW | inactive
EASNCFAIRHFENKFAVETLICHVRSPEVFRFIG | inactive
EASNCFAIRHFENKFAVETLICHVSSIDTKSLVC | inactive
EASNCFAIRHFENKFAVETLICHVTTWVSNDPGV | -0.0198
EASNCFAIRHFENKFAVETLICHVVKKRLNTYEM | -0.0583
EASNCFAIRHFENKFAVETLICHVVYNSTCSLEI | 2.26
EASNCFAIRHFENKFAVETLICHVYIS | 6.05
EASNCFAIRHFENKFAVETLICHWAQCWRYAARR | inactive
EASNCFAIRHFENKFAVETLICHWCGFFFHSDVE | 8.08
EASNCFAIRHFENKFAVETLICHWGSLNKAYAIR | inactive

Same assay, conditions: random library (experiment): 3

Sequence | amyloid nucleation score
EASNCFAIRHFENKFAVETLICHVGDNVVEVMTR | -0.26
EASNCFAIRHFENKFAVETLICHVKVMLSQSYVR | inactive
EASNCFAIRHFENKFAVETLICHVLRFADAEVSQ | inactive
EASNCFAIRHFENKFAVETLICHVMDIMSSDVRC | inactive
EASNCFAIRHFENKFAVETLICHVPCQSSDWFCC | 7.43
EASNCFAIRHFENKFAVETLICHVPWYNCLTYCC | 5.9
EASNCFAIRHFENKFAVETLICHVSG | inactive
EASNCFAIRHFENKFAVETLICHVWGSLAMQNLL | 5.76
EASNCFAIRHFENKFAVETLICHWARLQAGTGLK | inactive
EASNCFAIRHFENKFAVETLICHWIAHGWRSWRV | inactive
